Source: PubChem BioAssay AID1159614 (National Center for Advancing Translational Sciences (NCATS), 2016)
Hit rate of the full screen: of about 45,000 compounds, about 65 (0.1%) were called active. This list was built around the results that the source calls inconclusive (neither active nor inactive); the mix of calls is not that of the screen. Calls follow the shape of the dose curve; as a rule, active = well fitted activation curve with a large enough effect; inconclusive = small, poorly fitted or top-dose-only effect; inactive = no such curve, though single readings can be large or run the other way. A potency beside an inconclusive call is a rough fit, not a confirmed value.

The compounds below were run against Galactocerebrosidase (Homo sapiens) (UniProt P54803) (assay: A Novel Cell-Based Assay to Identify Small Molecules for B -Galactocerebrosidase). Settings: 145M-Twi-hGALC-G270D cells (Twitcher mouse brain line with human GALC G270D), HMU-beta-Gal fluorescence, 48 h; activation: at 57.5 µM (top of the series).
Excerpt: Lysosomal storage diseases (LSDs) are caused by genetic mutations in genes encoding proteins important for normal lysosomal function. Globoid cell leukodystrophy (GLD), mostly known as Krabbe disease, is a prototype of the neurological LSDs caused by deficiency of beta-galactocerebrosidase (GALC). In brain specimens of GLD patients, psychosine levels are substantially elevated. At elevated concentrations, psychosine becomes cytotoxic to neuronal cells, particularly to oligodendrocytes (OLG), neural cells responsible for myelin formation. Therefore, the biochemical disturbances in GLD are manifested by different degrees of brain demyelination resulting in a broad spectrum of neurological manifestations. Most of the FDA-approved therapies are based on enzyme replacement therapeutic (ERT) agents, which treat non-neurological symptoms of Gaucher disease, Fabry disease, few mucopolysaccharidoses and Pompe disease. Unfortunately, in GLD, a primarily neurological LSD, ERT agents, as large molecular weight molecules unable to cross the blood-brain barrier, which makes this an inefficacious therapeutic approach. In GLD, increasing the residual GALC activity just above the critical threshold (~10% of wild type enzymatic activity), the cytotoxic levels of psychosine will be reduced, avoiding the OLGs apoptosis and the subsequent demyelination process. This will translate in disease stabilization and amelioration of GLD patient symptoms.
A cell-based assay in 1,536-well plate format was developed to implement a quantitative high-throughput screening (qHTS) assay using GLD-disease relevant cells to identify small molecules that produce enhancements of the residual enzymatic activity levels of mutants GALC found and prevalent in GLD patients. Compounds that are active may therefore have some therapeutic application for GLD. After the treatment of live cells for a determined period, using a fluorescent GALC specific substrate, the mutant residual GALC activity is measured. This cell-based qTHS assay was used to screen part of the MLPCN library for small molecule able to increase the mutant GALC enzymatic activity. In this assay, increased fluorescent signal corresponds to enhanced levels of mutant GALC residual enzymatic activity. Activation is the desired outcome for this assay.
NIH Chemical Genomics Center [NCGC]
NIH Molecular Libraries Probe Centers Network [MLPCN]
Assay Submitter (PI): Gustavo Maegawa MD,PhD, University of Florida, Gainesville, FL
2)#Two cell lines were established for the assay: 145M-Twi-hGALC-G270D (brain-derived Twitcher cell line stably expressing human GALC-G270D) and 145M-Twi-hGALC-WT (same 145M-Twi stably expressing human GALC wild type). The Twitcher is the murine C57B/6 model for GLD with naturally occurring homozygous nonsense GALC mutation. The 145M-Twi cell line was established at Maegawa lab (Ribbens J et al 2014).
a.#Media: DMEM/F12 (1:1) with 10% fetal bovine-serum (FBS) with penicillin/streptomycin (PS-1X - 100 I.U./mL of penicillin+100 ug/mL of streptomycin).
b.#The 6-Hexadecanoylamino-4-methylumbelliferyl-b-D-galactoside (HMU-B-gal) substrate was prepared as per Wiederschain et al 1992. Using 20-mL borosilicate tubes, 2.20 mg of HMU-b-Gal was added in each tube to prepare substrate-film with a final air-nitrogen stream evaporation to remove all diluent solvents.
c.#The HMUb-Gal substrate buffer consists of 0.2 M Na2HPO4 (sodium phosphate dibasic)/ 0.1 M Citric Acid with the pH adjusted to 5.2 using HCl. Sodium Azide at 0.02% and Sodium Taurocholate (NaTC) at 1 mg/mL were added to this substrate buffer.
d.#The HMU-b-Gal stopping buffer consist of 0.5 M NaHCO3 (sodium bicarbonate) /0.5 M Na2CO3 (sodium carbonate). […] Triton X-100 at 0.25% was added.
4)#Preparation of HMU-b-Gal substrate tubes
Adding 18.6 mL of the HMUb-Gal substrate buffer to each 20-mL tube (2.20 mg of HMU-b-Gal) will reach a concentration of 0.2 mM. Vortex well the tube until the solution is fully homogenized (clear cloudy solution). […]
Also: nearly all actives have a fitted effect of over 65% in size.
For activation in this document: 0% is about no effect.
Potency is read from the fitted curve at half-maximal effect; tags tell the direction and shape of the fitted curve.

Chain of UniProt P54803 (P54803 whole entry, looked up): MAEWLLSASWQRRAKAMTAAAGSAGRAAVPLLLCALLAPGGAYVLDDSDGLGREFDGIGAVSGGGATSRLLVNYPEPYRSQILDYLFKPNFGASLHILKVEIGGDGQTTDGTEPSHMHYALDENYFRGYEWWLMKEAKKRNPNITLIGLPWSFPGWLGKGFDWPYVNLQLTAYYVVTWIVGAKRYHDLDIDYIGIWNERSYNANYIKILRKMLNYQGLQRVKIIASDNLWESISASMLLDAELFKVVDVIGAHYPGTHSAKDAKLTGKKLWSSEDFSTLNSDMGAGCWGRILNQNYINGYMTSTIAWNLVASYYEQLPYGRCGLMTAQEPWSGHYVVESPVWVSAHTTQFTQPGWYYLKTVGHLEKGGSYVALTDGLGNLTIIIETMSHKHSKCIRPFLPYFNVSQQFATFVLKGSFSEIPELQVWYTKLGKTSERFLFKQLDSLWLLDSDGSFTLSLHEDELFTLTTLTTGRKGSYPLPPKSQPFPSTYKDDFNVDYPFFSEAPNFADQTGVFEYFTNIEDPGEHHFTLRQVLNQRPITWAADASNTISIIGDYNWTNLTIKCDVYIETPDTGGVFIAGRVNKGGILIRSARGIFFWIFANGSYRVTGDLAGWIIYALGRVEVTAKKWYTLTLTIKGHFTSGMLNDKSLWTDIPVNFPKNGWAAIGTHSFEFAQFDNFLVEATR

activation, inactive:
COc1ccc(N2CCN(CC(O)COc3ccc(C)c(C)c3)CC2)cc1 (stereo not given) 13.8%, CCc1ccc(NC(=O)C2CCN(c3ccc(Sc4ccc(C)cc4)nn3)CC2)cc1 -7.47%, Cc1ccc2nc(-c3ccc(N4CCOCC4)cc3)c(Nc3ccccc3C)n2c1 -5.74%, COc1ccccc1Nc1nn2c(=O)c3ccc(C(=O)NC4CCCCC4)cc3nc2s1 9.8%, CCCCCCCCCCCC[N+](C)(C)Cc1ccccc1 -21.4%, CN1C[C@H]2c3ccccc3Oc3ccc(Cl)cc3[C@@H]2C1 -10.5%, Cc1ccc(C2C=C(c3ccccc3)Nc3nc(NS(=O)(=O)c4ccccc4)nn32)cc1 (stereo not given) -14%, O=C(CSc1cn(CCNC(=O)c2c(F)cccc2F)c2ccccc12)Nc1ccccc1F -16%, CC1Cc2cc(S(=O)(=O)N(Cc3ccccc3)C(C)C)ccc2N1C(=O)C1CCC1 (stereo not given) -16.9%, Cc1cccc(Nc2c3c(nc4nncn24)CCC3)c1C -26%, Cc1cccc(N2CCN(C(=O)Cn3c(=O)c4cccn4c4ccc(F)cc43)CC2C)c1 (stereo not given) 22.5%, CCOc1ccc(-c2csc3ncnc(Nc4cccc(O)c4)c23)cc1 -9.83%, CCCCn1c2ccc(F)cc2c2nnc(SCCN(CC)CC)nc21 -8.55%, Cc1cc(C)c(NC(=O)Cn2c(=O)n(Cc3ccc(C(=O)NCc4ccco4)cc3)c(=O)c3sccc32)c(C)c1 -20%, COc1cc(NC(=O)c2cccc(F)c2)ccc1NC(=O)c1cc2ccccc2o1 -12.5%, CC1(C)C(=O)N(CC(=O)Nc2ccc(Br)cc2F)c2ccccc21 -11.2%, Cc1ccc(-n2ncc3c(NC4CCCCC4)ncnc32)cc1C -14.6%

Potency, active:
COc1cccc(/C=C/c2nc(C#N)c(N3CCC(C(N)=O)CC3)o2)c1 25.1 µM, Cc1ccc2c(c1)c(=O)c1ccccc1n2CCCC(=O)Nc1c(F)cccc1F 1.12 µM

Potency, inconclusive:
COc1ccc(-c2cc(C(=O)Oc3ccc(Cl)cc3)c3ccccc3n2)cc1 35.5 µM [activator, single point], Cc1ccc(OCc2cc(=O)n3c4c(sc3n2)CCCC4)c(C)c1 31.6 µM [activator, single point], NC(=O)C1CCN(C(=O)c2ccccc2NC(=O)c2nsc3ccccc23)CC1 2 µM [activator, partial curve], COCC(=O)N1CCc2cc(OC)c(OC)cc2C1COc1ccc2c(C)cc(=O)oc2c1 (stereo not given) 22.4 µM [activator, single point], CCOC(=O)c1c(NC(=O)c2cc(-c3ccccc3)on2)sc2c1CCCC2 28.2 µM [activator, single point], COc1ccc2nc(NS(=O)(=O)c3ccc(C)cc3)c(Nc3cc(Cl)ccc3OC)nc2c1 3.16 µM [activator, partial curve], CC1=C(C(=O)NCc2cccc(Cl)c2)C2(CCCCCC2)OC1=O 1 µM [activator, partial curve], Cc1nc2cc(-c3cccc(F)c3)nn2c(C)c1CCC(=O)NCCc1ccccc1 0.178 µM [activator, full curve], CCc1ccccc1Nc1nn2c(=O)c3ccc(C(=O)NCc4ccccc4Cl)cc3nc2s1 39.8 µM [activator, single point], O=C(COc1ccccc1[N+](=O)[O-])Nc1ccc(-c2nc3ccccc3s2)cc1 39.8 µM [activator, partial curve], CCn1c(=O)c2cc(C(=O)NCCc3cccc(C)c3)sc2c2ccccc21 0.178 µM [activator, full curve], Cc1cccc(CNC(=O)c2ccc(-c3nc(CS(=O)(=O)c4ccccc4)c(C)o3)cc2)c1 39.8 µM [activator, single point], CCN(C(=O)c1oc2ccc(S(=O)(=O)N3CCCCCC3)cc2c1C)c1ccccc1 39.8 µM [activator, single point], O=C(c1ccccc1)c1ccc2nc(Nc3cc(Cl)ccc3O)c3nncn3c2c1 0.178 µM [activator, partial curve, poor fit], COc1ccccc1CN1COc2ccc3c(C)cc(=O)oc3c2C1 39.8 µM [activator, single point], COc1ccc(C(=O)Nc2nc3n(n2)C(c2ccccc2)C=C(c2ccccc2)N3)cc1 (stereo not given) 25.1 µM [activator, single point], Cc1ccccc1Cc1c(C)nc2nc(SCC(=O)N(C)c3ccccc3)nn2c1C 39.8 µM [activator, single point], CN(C)CCNC(=O)c1ccc2c(c1)NC(=O)C(CS(=O)(=O)Cc1cccc(Br)c1)N2 (stereo not given) 28.2 µM [activator, single point], CCC(C)c1ccc(OCC(=O)Nc2ccc(-c3nc4ncccc4o3)cc2)cc1 (stereo not given) 22.4 µM [activator, single point], O=C(CSc1nc2ccccc2nc1Cc1ccc(Cl)cc1)N1CCCc2ccccc21 0.316 µM [activator, full curve], COc1ccc(CN2COc3ccc4c(C)cc(=O)oc4c3C2)cc1 39.8 µM [activator, single point], CC(C)(C)OC(=O)N1CCC(c2c(C(=O)Nc3ccc4c(c3)OCCO4)cnn2-c2ccc(F)cc2)CC1 22.4 µM [activator, single point], Cc1cc(C)cc(OCC(=O)Nc2ccc(Cl)c(-c3nc4ncccc4o3)c2)c1 0.178 µM [activator, full curve, poor fit], Cc1cccc(NC(=O)CN2C(=O)C(c3ccc(F)cc3)=NC23CCCCCC3)c1C 2.51 µM [activator, single point], COc1ccccc1OC(C)C(=O)N1CCC(c2nc3ccccc3s2)CC1 (stereo not given) 35.5 µM [activator, single point], CCOc1cc(/C=C(\C#N)C(=O)Nc2ccc(OC)cc2)ccc1OCc1cc(=O)n2nc(CC)sc2n1 2.24 µM [activator, partial curve, poor fit]
